Drawing on article PMC12136788, this text covers binding signal for 22 molecules.

The other results are listed elsewhere or left out.

The chains are these.
B1: chr1:66374421:66374522:+|3pUTR|ENSG00000184588|msi1|total|mutant (ssRNA)
RNA: GGGAGUUCUACAGUCCGACGAUCACUGCAUUGUUUCAGGUGGACAUUUUAUCAUUUUCAAAUGUUUCUCACAAUGUAUGUUACCGUAUUAUUAUUAUAUAUUGUGUUCAAAUGCAUUCUAAAGAGACUUUUAUAUGAGGUGAACAACAGAGGAUUGAGCAUCA
B2: ENSG00000110906:stop:overlap|stop_codon|ENSG00000110906|stop_codon|NA|stop_codon (ssRNA)
RNA: GGGAGUUCUACAGUCCGACGAUCGCUGCCUCCCUUUACUCCCAGUCCCAUUUACAAAAAUAACGUUUGUGUUUUACCAGUUAUAGUUGUAGUACCCAUUCAUUAUAGAAAAUCUGGAAAAGCUAGACAAUUCUUUUUCAGUUUCAACAGAGGAUUGAGCAUCA
B3: chr10:62096657:62096758:+|3pUTR|ENSG00000150347|msi1|total|mutant (ssRNA)
RNA: GGGAGUUCUACAGUCCGACGAUCACCUCUAUGCUCUGUAAGGUGAUUAUUUGUAUACCGCAACAUGGCCCAGUGAUAUUAUACCGUUUCCCAAUGGAGAGGUUAUUGAGUAACCUUUGCAUCCGUUUAAACACUACCAGAAGACAACAGAGGAUUGAGCAUCA
B4: chr6:43287355:43287456:+|3pUTR|ENSG00000146216|unk|total|mutant (ssRNA)
RNA: GGGAGUUCUACAGUCCGACGAUCUAUGACUCCUGGUGCCCAGGCCCUGGGCCUGCUCCUUGCCACCAACCGAACCGUGAAUGCCGGGCCCCCAGCCUCACCUCUGCCCCAGGACCAACAACACCCUGGUUUGGAGCUGGGAGGCAACAGAGGAUUGAGCAUCA
B5: chr1:204554719:204554820:+|3pUTR|ENSG00000198625|unk|FALSE|unique (ssRNA)
RNA: GGGAGUUCUACAGUCCGACGAUCAAGUACUUUCUUUUGACAGAAAUUUUCAUUCUGCUUGCCAUUGCUAUAUUCUCCCUUUAUAGGAGCCAUUGGAUUUCUUUCCUUUUGUGGGAAAUGUCCCAUUAGCAUUUUCAGAUCUUUCAACAGAGGAUUGAGCAUCA
B6: chr4:65323451:65323552:-|3pUTR|ENSG00000145242|msi1|total|mutant (ssRNA)
RNA: GGGAGUUCUACAGUCCGACGAUCAUCAAGAAAAAGUACAAUACAGGGUGUAUAUUUAUUUUUUGUGUUAUAAAGUUUACUUUCCGUUGCUCUUCCCGAGAUUAUCCGGUAAUAAAUGUGUAUAUACUGUAUAAUUUGCAAUAUCAACAGAGGAUUGAGCAUCA
B7: chr3:87253716:87253817:+|CDS|ENSG00000083937|unk|total|mutant (ssRNA)
RNA: GGGAGUUCUACAGUCCGACGAUCUGCCUCUACUUCAAAGGCUACAAUCUCAGAUGAAGAGAUUGAACGGCAACUCAAGGCUUCCGGAGCCGAUCCGUCAAAAGAAGUCAUACUAUUUUGCUUACUUAUAAUUAUGCCGUAUAACAACAGAGGAUUGAGCAUCA
B8: chr9:113264340:113264441:+|3pUTR|ENSG00000136868|msi1|total|mutant (ssRNA)
RNA: GGGAGUUCUACAGUCCGACGAUCAAAGUCUGCAUUUGAUAUAAUGCCUUAAUUACUGGGUCUACAAUUAAUGUUGACUGUUUCCGAUUGUAAGCUCCUGGAGAGCAGUAUUGCUGCCGCCGGAAUGUUUUAACAGUGUCAUAUCAACAGAGGAUUGAGCAUCA
B9: chr3:11557161:11557262:-|3pUTR|ENSG00000144560|msi1|FALSE|unique (ssRNA)
RNA: GGGAGUUCUACAGUCCGACGAUCCCUCUGACUUUAUACUGUUAUUACUGCAUUUAUUAUUUGCUAUAUUAAUAGCUACUAACUAGAAAUUAGAUGAAGCAAGCAUGACAGACACAGCUGUGGAGGUCACAGCUGCUCCUUUUUCAACAGAGGAUUGAGCAUCA
B10: chr15:75505753:75505856:-|CDS|ENSG00000169410|unk|total|mutant (ssRNA)
RNA: GGGAGUUCUACAGUCCGACGAUCGGUGAACGGCCACCCAGAUCCCUUCGAUGAGAUCAUCCUGUUCUCCCUCCCUCCUGCCUCCGACUGGGACUCAGUACAUGUUCCAGGUCCCCAUGCUAUGACCAUCCAAGAGUUGGUGGACAACAGAGGAUUGAGCAUCA
B11: chr1:179108573:179108674:-|CDS|ENSG00000143322|unk|total|mutant (ssRNA)
RNA: GGGAGUUCUACAGUCCGACGAUCAGCCAAGUUAUUGCCCAGAGGAGCCACAGCUCUUCCUCUCAGAACACCCUCUGGGGAUCCCGCCAUUACAGAGAAGGACCCUCCAGGGGUGGGAGUGGCUGGAGUGGCAGCUGCCCCCAACAACAGAGGAUUGAGCAUCA
B12: ENSG00000107863:be:win_2051|CDS|ENSG00000107863|bound_else_gene|NA|bound_elsewhere_windowed (ssRNA)
RNA: GGGAGUUCUACAGUCCGACGAUCCUUUAUCUGGAGCCUCUGCCAAGCCUGCCCCUCAGUCGAGUGAAAACGCUGGUACUUCAGAUUUAGAACUACCUGUCAGUCAAAGGAAUCAAGAUUUAAGUUUACAAGAGGCUGAAACUGCAACAGAGGAUUGAGCAUCA
B13: chr11:119024350:119024909:-|three_prime_utr|ENSG00000137700|control|control|control (ssRNA)
RNA: GGGAGUUCUACAGUCCGACGAUCUCCCACGGUGGCCUUCCCCCUGCACGCUCUGCGGGGAGAAAAGGAGGGGCCUGCCUGGCUAGCCCUGAACCUUUCACUUUCCAUUUCUGCGCCUUUUCUGUCACCCGGGUGGCGCUGGAACAACAGAGGAUUGAGCAUCA
B14: chr11:61873518:61873813:-|three_prime_utr|ENSG00000221968|control|control|control (ssRNA)
RNA: GGGAGUUCUACAGUCCGACGAUCCCCUCACAUGUGUAUUCAGCAGCCCUAUGGCCUUGGCUCUGGGCCUGAUGGGACAGGGGUAGAGGGAAGGUGAGCAUAGCACAUUUUCCUAGAGCGAGAAUUGGGGGAAAGCUGUUAUUUCAACAGAGGAUUGAGCAUCA
B15: chr2:216675642:216675774:-|3pUTR|ENSG00000115461|msi1|total|mutant (ssRNA)
RNA: GGGAGUUCUACAGUCCGACGAUCUUUUUCUUUGUUUUUUUCUUUCUUCCUUUCUUUCAAAGGUUUGCAUUAACUUUUCAAAGCCGUUCCUACCGGGGCAUUGAGGAGCUUCCUCAUUCUGGGAAAACUGAGAAAACCCAUAUUCAACAGAGGAUUGAGCAUCA
B16: ENSG00000070961:be:win_3001|CDS|ENSG00000070961|bound_else_gene|NA|bound_elsewhere_windowed (ssRNA)
RNA: GGGAGUUCUACAGUCCGACGAUCGAAGGAAUCUUUAACAAUGCCAUCUUCUGCACAAUUGUUUUAGGCACUUUUGUGGUACAGAUAAUAAUUGUGCAGUUUGGUGGAAAACCUUUCAGUUGUUCAGAACUUUCAAUAGAACAGCAACAGAGGAUUGAGCAUCA
B17: chr20:4700211:4700532:+|3pUTR|ENSG00000171867|msi1|FALSE|unique (ssRNA)
RNA: GGGAGUUCUACAGUCCGACGAUCUUGCCUGGAUACCUCUGGCUCCUUCAGCAGCUAGAGCUCAGUAUACUAAUGCCCUAUCUUAGUAGAGAUUUCAUAGCUAUUUAGAGAUAUUUUCCAUUUUAAGAAAACCCGACAACAUUUCAACAGAGGAUUGAGCAUCA
B18: chr19:48485270:48485772:-|three_prime_utr|ENSG00000142235|control|control|control (ssRNA)
RNA: GGGAGUUCUACAGUCCGACGAUCCCCCUGACCCCCCUGACCCCCUCGGAGCCAAAUGAGGCAGGAAUCCCCCCGCCCCUCCAUAGAGAGCCGCCUUUCUCGGAACUGAACUGAACUCUUUUGGGCCUGGAGCCCCUCGACACACAACAGAGGAUUGAGCAUCA
B19: chr17:15565482:15566353:-|three_prime_utr|ENSG00000241322|control|control|control (ssRNA)
RNA: GGGAGUUCUACAGUCCGACGAUCCACCCAAAGAAAAAGUCUUGGAAAAUCCCUAUGUCACCUGACCAAUUCCUCCUGACUGUUAGCGCCCUGCAGCACGCCCGUAAUUCCGGGGAAUUUGCCUAUCCCUGUAGGCCCCAAACACAACAGAGGAUUGAGCAUCA
B20: chr2:196133582:196137729:-|three_prime_utr|ENSG00000081320|control|control|control (ssRNA)
RNA: GGGAGUUCUACAGUCCGACGAUCUCUGUAAGGUCCUCUGAAGACAAGACUUCUAAAUCCUCCUGUAAUGGAACCUGUGGUGAUAGAGAAGACAAAGAGAAUAUCCCAGAGGAUAGCAGCAUGGUUUCCAAAAGAUUUCGUUUCCAACAGAGGAUUGAGCAUCA
B21: chr11:113738268:113738383:-|CDS|ENSG00000086827|unk|total|mutant (ssRNA)
RNA: GGGAGUUCUACAGUCCGACGAUCUGCUUUUUGGCCCAAAUGCGGGCACAGAAAGGUGAACUUCUGGAAAGAUUAUCAAGUGCCCGGAACUUUUCAAAUAUGGACGAUGAAGAGAAUUAUUCUGCAGCAAGUAAAGCAGUCCGGCAACAGAGGAUUGAGCAUCA
B22: chr19:34227675:34227687:+|3pUTR|ENSG00000257103|msi1_unk|total|mutant (ssRNA)
RNA: GGGAGUUCUACAGUCCGACGAUCUUAAAACAUGAGCAUUAAAUAUAUUUGGAACCGCAGAAGGUUAAGUAAUUUCUUAUGUACCGUUAAACUAAAGCAGUACUUCAGUGGGACUUAACAAGUAUUUUUUCAUCACUGAAAGGUCAACAGAGGAUUGAGCAUCA

In this test the target is MSI1 full-length (mouse, UniProt Q61474 1-362). Nature of the test: nsRBNS (natural sequence RNA bind-n-seq); RBNS binding buffer (assumed for nsRBNS): 25 mM Tris pH 7.5, 150 mM KCl, 3 mM MgCl2, 0.01% Triton X-100, 500 ug/ml BSA, 20 U/ml SUPERase-In, 4 C; UNK is unkempt and MSI1 is Musashi-1; names of the RNAs are library labels; protein concentration not given here; high values mean tight binding.
Chain of UniProt Q61474 (Q61474 whole entry): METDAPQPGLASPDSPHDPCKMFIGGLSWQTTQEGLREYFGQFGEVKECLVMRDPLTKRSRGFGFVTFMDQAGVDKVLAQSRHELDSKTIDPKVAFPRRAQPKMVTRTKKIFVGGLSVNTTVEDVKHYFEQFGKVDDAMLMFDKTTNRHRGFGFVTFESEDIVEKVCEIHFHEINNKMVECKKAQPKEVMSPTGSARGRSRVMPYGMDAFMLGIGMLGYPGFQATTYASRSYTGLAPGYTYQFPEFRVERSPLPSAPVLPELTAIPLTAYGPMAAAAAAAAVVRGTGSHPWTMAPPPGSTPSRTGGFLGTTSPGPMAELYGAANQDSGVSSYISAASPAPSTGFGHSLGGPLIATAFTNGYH
In the case of B1, the binding signal was 0.538 enrichment R.

As for B2, the binding signal came out at 0.671 enrichment R.

Turning to B3, the binding signal was 0.358 enrichment R.

The molecule B4 returned a binding signal of 0.465 enrichment R.

As to B5, the binding signal was determined as 0.583 enrichment R.

Molecule B6 yielded a binding signal of 1.51 enrichment R.

B7 came in with a binding signal of 0.786 enrichment R.

B8: the binding signal was 0.304 enrichment R.

Molecule B9 yielded a binding signal of 5.68 enrichment R.

For B10, the binding signal was found to be 0.65 enrichment R.

The molecule B11 had a binding signal of 0.418 enrichment R.

For B12, the binding signal is 0.537 enrichment R.

For the molecule B13, the binding signal is 0.361 enrichment R.

As for B14, the binding signal was 0.542 enrichment R.

In the case of B15, the binding signal worked out at 0.255 enrichment R.

In turn, B16 yielded a binding signal of 0.441 enrichment R.

The molecule B17 registered a binding signal of 10.4 enrichment R.

Molecule B18 yielded a binding signal of 0.962 enrichment R.

Turning to B19, the binding signal worked out at 0.519 enrichment R.

Molecule B20 displayed a binding signal of 0.485 enrichment R.

With B21, the binding signal was determined as 0.248 enrichment R.

Consider B22, for which the binding signal amounted to 1.31 enrichment R.
